Laboratory results as given in PubChem BioAssay AID588855 (National Center for Advancing Translational Sciences (NCATS), 2011).
In all, about 410,000 compounds went through this assay and about 5,000 (1.2%) were called active. Inconclusive results, whose numbers are uncertain, are shown with a selection of clear calls. Calls follow the shape of the dose curve; as a rule, active = well fitted inhibition curve with a large enough effect; inconclusive = small, poorly fitted or top-dose-only effect; inactive = no such curve, though single readings can be large or run the other way. Potencies of inconclusive entries are doubtful fits and often do not repeat.

experiment: qHTS for Inhibitors of TGF-b; conditions: HepG2 CAGA-GFP TGF-b/SMAD3 reporter, GFP fluorescence, 18 h, TGF-beta stimulated, 500 pg/mL final; series mostly up to 46.1 µM; also: nearly all actives have a fitted effect of over 65% in size
Summary of the method: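 First, reporter cells (HEPG2 CAGA-GFP) rested 2 h at 37 degrees C. Next, compounds were pinned in and TGF-beta added to 500 pg/mL final. After 18 h, GFP was imaged per cell and summed per well.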
Potency is read from the fitted curve at half-maximal effect; tags tell the direction and shape of the fitted curve.

Row | Structure (SMILES) | Potency
1 | Cc1ccc(NC(c2ccc(Cl)cc2)c2nnc(-c3cccc(F)c3)o2)cc1C (stereo unspecified) | inactive
2 | Cc1cc2cc3c(cc2nc1SCC(=O)N1CCN(C(=O)c2ccco2)CC1)OCO3 | inconclusive: 28.2 µM [inhibitor, single point]
3 | CCCCNC(=O)CN1CCN(Cc2ccc3cc(OC)ccc3c2)CC1 | inconclusive: 35.5 µM [inhibitor, single point]
4 | COc1ccc(-c2noc(CNS(=O)(=O)c3ccc(Br)cc3)n2)cc1OC | inconclusive: 20 µM [inhibitor, single point]
5 | Cn1cc(SCC(=O)Nc2ccc3c(c2)OCCO3)c2ccccc21 | inactive
6 | Cc1ccc(-c2noc(CN(C(=O)COc3cc(C)cc(C)c3C)C(C)C)n2)cc1 | inconclusive: 22.4 µM [inhibitor, single point]
7 | CCc1cccc(NC(=S)N(CCN(C)C)C(C)c2ccncc2)c1 (stereo unspecified) | inconclusive: 35.5 µM [inhibitor, single point]
8 | COc1ccc(CCNS(=O)(=O)c2ccc3c(c2)oc(=O)n3C)cc1OC | inactive
9 | Cc1ccc(-c2nc3cccnc3o2)cc1NC(=O)COc1ccc(C(C)(C)C)cc1 | inconclusive: 35.5 µM [inhibitor, single point]
10 | Cc1ccc(C)c2c(/C=C/c3ccc(N(C)C)cc3)ccnc12 | inactive
11 | O=C(NC1CCCCC1)c1cc2ccccc2cc1O | inconclusive: 25.1 µM [inhibitor, single point]
12 | CCOC(=O)c1c(C)[nH]c(CCC(=O)Nc2ccc(Cl)cc2C)c1C | inactive
13 | Cc1ccc(CNCc2c(C(=O)O)n(Cc3ccc(C)cc3)c3cc(C)ccc23)cc1 | active: 28.2 µM
14 | CCc1ccc(-c2cc(C(=O)N3N=C(C(F)F)CC3(O)C(F)F)c3ccccc3n2)cc1 (stereo unspecified) | inconclusive: 25.1 µM [inhibitor, single point]
15 | Cc1ccc(S(=O)(=O)N(C)C)cc1NC(=S)NC(C)CCCC(C)C (stereo unspecified) | active: 17.8 µM
16 | COc1ccc(-c2cc3ncc(-c4ccccc4)c(N)n3n2)cc1 | inconclusive: 12.6 µM [inhibitor, single point]
17 | CCN(CC)CCNC(=O)c1ccc(Cl)c(S(=O)(=O)N2CCCCCC2)c1 | inactive
18 | CC(=O)Nc1ccc(Nc2cc(C)c3ccccc3n2)cc1 | inconclusive: 35.5 µM [inhibitor, single point]
19 | C[C@H](NC(=O)c1nc[nH]c1C(=O)NC(c1ccccc1)c1ccccc1)C(=O)OCc1ccccc1 | inconclusive: 35.5 µM [inhibitor, single point]
20 | CC(=O)Nc1ccc(SCC(=O)c2ccc(Br)s2)cc1 | inconclusive: 35.5 µM [inhibitor, single point]
21 | O=c1ccc(-c2ccccc2)nn1Cc1ccc(F)cc1 | inconclusive: 35.5 µM [inhibitor, single point]
22 | CN(C)c1ncnc2c1NC1=C(S2)C(=NCCCC(=O)O)CC(C)(C)C1 | inconclusive: 17.8 µM [inhibitor, single point]

Row | Structure (SMILES) | Potency
23 | Cc1cc(C)cc(NC(=O)CSc2nnc(-c3cc4occc4n3C)n2-c2ccccc2C)c1 | inconclusive: 1.78 µM [inhibitor, full curve]
24 | CCCCn1c(N)c(C(=S)NC(=O)CC(C)(C)C)c(=O)n(C)c1=O | inconclusive: 22.4 µM [inhibitor, single point]
25 | Cc1ccc(Cl)cc1N1CCN(C(=O)c2ccccc2SCC(=O)N2CCCC2)CC1 | inconclusive: 20 µM [inhibitor, single point]
26 | COc1ccc2c(CNC3CCCCCC3)c(C(=O)O)n(Cc3cccc(F)c3)c2c1 | inactive
27 | CC(C)NC(=O)C1CCN(C(=O)c2cc3sccc3n2Cc2ccc(Cl)cc2)CC1 | inconclusive: 2.82 µM [inhibitor, full curve]
28 | S=C(NCc1cccnc1)Nc1ccc(Cl)cc1 | inactive
29 | CCc1ccc(-n2cccc2/C=C2/C(=N)N3C(=NC2=O)SN=C3S(C)(=O)=O)cc1 | inconclusive: 17.8 µM [inhibitor, single point]
30 | O=C1Nc2ccc([N+](=O)[O-])cc2OC1CCN1CCOCC1 (stereo unspecified) | inactive
31 | O=C(NNC(=S)Nc1ccc(Cl)c(Cl)c1)c1cccc([N+](=O)[O-])c1 | inconclusive: 8.91 µM [inhibitor, partial curve, poor fit]
32 | CCOC(=O)c1sc(NC(=O)Nc2ccccc2)cc1C | inconclusive: 25.1 µM [inhibitor, single point]
33 | CC(C)N(C(=O)[C@H]1C[C@H](CC(=O)NCC23CC4CC(CC(C4)C2)C3)C(=O)N2CCc3c([nH]c4cc(CCC(=O)N(C)C)ccc34)[C@]12C)C(C)C | inconclusive: 35.5 µM [inhibitor, single point]
34 | O=C(Oc1ccccc1)c1cccc2cccc(C(=O)Oc3ccccc3)c12 | inactive
35 | C=CCNCCCOc1ccc(Cl)cc1Br | inactive
36 | CCc1c(C)c(C#N)c2nc3ccccc3n2c1NCC1CCCO1 (stereo unspecified) | inconclusive: 20 µM [inhibitor, single point]
37 | COc1ccc2nc(C)cc(SCC(=O)N/N=C/c3ccccc3)c2c1 | inconclusive: 35.5 µM [inhibitor, single point]
38 | CCOC(=O)C1=CCN(S(=O)(=O)c2ccccc2C)C1c1ccc(Cl)c(Cl)c1 (stereo unspecified) | inconclusive: 35.5 µM [inhibitor, single point]
39 | Cc1ccccc1CCNC(=O)c1ccc(Cl)c(S(=O)(=O)N2CC(C)OC(C)C2)c1 (stereo unspecified) | active: 10 µM
40 | CN(Cc1cccc(C(F)(F)F)c1)Cc1nc(-c2cnccn2)no1 | inactive
41 | Cc1cccc2c1Sc1ccc(Cl)cc1CC2N1CCNCC1 (stereo unspecified) | inconclusive: 22.4 µM [inhibitor, single point]
42 | NC(c1csc(Nc2nncc3ccccc23)n1)c1ccccc1Cl (stereo unspecified) | inconclusive: 35.5 µM [inhibitor, single point]
43 | O=C(C1CCC(Cn2c(=O)c3sccc3n(Cc3ccccc3F)c2=O)CC1)N1CCCCC1 (stereo unspecified) | inconclusive: 12.6 µM [inhibitor, partial curve, poor fit]
44 | O=C(c1ccccc1)N1CCC(=O)N1c1ccccc1 | inconclusive: 11.2 µM [inhibitor, single point]

Row | Structure (SMILES) | Potency
45 | O=C1c2ccccc2CN2C(=O)c3ccccc3CN12 | inactive
46 | CCC(C)c1ccc(NC(=O)c2c([N+](=O)[O-])cnn2CC)cc1 (stereo unspecified) | inconclusive: 7.94 µM [inhibitor, single point]
47 | C[C@H](CO)N1C[C@H](C)[C@H](CN(C)C(=O)c2ccccc2)OCc2ccccc2-c2c(n(C)c3ccccc23)C1=O | inactive
48 | CC(C)(C)NC(=O)CCc1nnc(Cc2c[nH]c3ccccc23)o1 | inactive
49 | COc1ccc(C)cc1NC(=O)COC(=O)c1ccccc1SCC(=O)N1CCCC1 | inconclusive: 14.1 µM [inhibitor, partial curve]
50 | COC(=O)C1=C(C)N(Cc2ccccc2)C(=NCc2cc(OC)c(OC)c(OC)c2)N[C@H]1c1cccc(F)c1 | inconclusive: 0.178 µM [inhibitor, full curve, poor fit]
51 | Cc1sc(NC(=O)CN2CCOCC2)nc1-c1ccc2c(c1)CCN2S(=O)(=O)c1ccccc1 | inconclusive: 0.316 µM [inhibitor, full curve, poor fit]
52 | O=C(Nc1cccc(Br)c1)c1ccc(Cl)c(S(=O)(=O)N2CCOCC2)c1 | inconclusive: 14.1 µM [inhibitor, partial curve, poor fit]
53 | CCOc1ccc(NC(=O)c2cc3c(=O)n(Cc4cccs4)ccc3nc2C)cc1 | inconclusive: 35.5 µM [inhibitor, single point]
54 | COc1ccc(N2CC(NC(=O)C3CC3)CC2=O)cc1OC (stereo unspecified) | inactive
55 | COC(=O)[C@H](C(C)C)N(Cc1ccccc1)S(=O)(=O)CCN1CCN(c2ccccc2)CC1 | inconclusive: 11.2 µM [inhibitor, partial curve, poor fit]
56 | COc1ccccc1-c1cc2nc(C)c(CCC(=O)NCc3cccc(Cl)c3)c(C)n2n1 | inconclusive: 15.8 µM [inhibitor, partial curve, poor fit]
57 | COc1cc2oc(=O)c(Br)c(C)c2c(OC)c1OC | inconclusive: 35.5 µM [inhibitor, single point]
58 | CCCCn1c(C(C)NC(=O)c2ccccc2)nc2ccccc21 (stereo unspecified) | inconclusive: 15.8 µM [inhibitor, single point]
59 | CC1(CCc2ccccc2)NC(=O)N(CC(=O)Nc2ccc(S(N)(=O)=O)cc2)C1=O (stereo unspecified) | inconclusive: 3.55 µM [inhibitor, single point]
60 | CCN(CC)S(=O)(=O)c1ccc2c(c1)c(=O)c(C(=O)N1CCN(c3cccc(C)c3)C(C)C1)cn2C (stereo unspecified) | inconclusive: 15.8 µM [inhibitor, single point]
61 | CC(C)N(C)Cc1nnnn1CC(=O)NCCc1cccc(C(F)(F)F)c1 | inconclusive: 35.5 µM [inhibitor, partial curve, poor fit]
62 | Cc1ccc(CNC(=O)CN(c2ccc(C)cc2)S(=O)(=O)c2c(C)nn(C)c2C)cc1 | inconclusive: 14.1 µM [inhibitor, partial curve, poor fit]
63 | O=C(Nc1nnc(S(=O)(=O)N2CCCc3ccccc32)s1)c1ccccc1 | inconclusive: 11.2 µM [inhibitor, partial curve, poor fit]
64 | COc1cc(CN2CCCC(N3CCN(c4ccccc4C)CC3)C2)ccc1O (stereo unspecified) | inactive
65 | COc1ccccc1CCC(=O)Nc1ccc(OC)c(S(=O)(=O)N2CCOCC2)c1 | inconclusive: 35.5 µM [inhibitor, single point]
66 | CCOc1ccc(Br)cc1C1C(C(=O)OC)=C(N)Oc2cc(N(C)C)ccc21 (stereo unspecified) | inconclusive: 35.5 µM [inhibitor, single point]
